This is one part of the list.
What was measured:
Experiment in all cases: glycan array binding signal (z-score within array); higher = stronger binding
Conditions in all cases: glycan notation: IUPAC condensed, linker removed
[1] = biological target: Neu5Ac(a2-6)Gal(b1-4)GlcNAc(b1-3)Gal(b1-4)GlcNAc(b1-3)GalNAc
Summary of the method: (§1)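 Columns mapping to the same glycan were averaged after glycan names were converted to IUPAC-condensed notation. The data come from 3228 arrays in the Consortium for Functional Glycomics database, limited to those with an available protein sequence. Binding is reported as a within-array Z-score averaged across arrays of one protein sequence and across linkers.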

[2] = biological target: Neu5Ac(a2-6)Gal(b1-4)GlcNAc(b1-3)Gal(b1-4)GlcNAc(b1-3)[Neu5Ac(a2-6)Gal(b1-4)GlcNAc(b1-3)Gal(b1-4)GlcNAc(b1-6)]GalNAc
Summary of the method: as §1

[3] = biological target: Neu5Ac(a2-6)Gal(b1-4)GlcNAc(b1-3)Gal(b1-4)GlcNAc(b1-6)[Gal(b1-3)]GalNAc
Summary of the method: as §1

[4] = biological target: Neu5Ac(a2-6)Gal(b1-4)GlcNAc(b1-3)Gal(b1-4)[Fuc(a1-3)]GlcNAc(b1-3)Gal(b1-4)[Fuc(a1-3)]GlcNAc
Summary of the method: as §1

[5] = biological target: Neu5Ac(a2-6)Gal(b1-4)GlcNAc(b1-3)GalNAc
Summary of the method: as §1

[6] = biological target: Neu5Ac(a2-6)Gal(b1-4)GlcNAc(b1-3)[Neu5Ac(a2-6)Gal(b1-4)GlcNAc(b1-6)]GalNAc
Summary of the method: as §1

[7] = biological target: Neu5Ac(a2-6)Gal(b1-4)GlcNAc(b1-6)GalNAc
Summary of the method: as §1

[8] = biological target: Neu5Ac(a2-6)Gal(b1-4)GlcNAc(b1-6)[Gal(b1-3)GlcNAc(b1-3)]Gal(b1-4)Glc
Summary of the method: as §1

[9] = biological target: Neu5Ac(a2-6)Gal(b1-4)GlcNAc(b1-6)[Gal(b1-3)]GalNAc
Summary of the method: as §1

[10] = biological target: Neu5Ac(a2-6)Gal(b1-4)GlcNAc6S
Summary of the method: as §1

Neu5Ac(a2-6)GalNAc = biological target: Neu5Ac(a2-6)GalNAc
Summary of the method: as §1

[11] = biological target: Neu5Ac(a2-6)GalNAc(b1-4)GlcNAc
Summary of the method: as §1

[12] = biological target: Neu5Ac(a2-6)GalNAc(b1-4)GlcNAc6S
Summary of the method: as §1

[13] = biological target: Neu5Ac(a2-6)GlcNAc(b1-4)GlcNAc
Summary of the method: as §1

[14] = biological target: Neu5Ac(a2-6)GlcNAc(b1-4)GlcNAc(b1-4)GlcNAc
Summary of the method: as §1

Neu5Ac(a2-8)Neu5Ac = biological target: Neu5Ac(a2-8)Neu5Ac
Summary of the method: as §1

[15] = biological target: Neu5Ac(a2-8)Neu5Ac(a2-3)Gal(b1-3)GalNAc(b1-4)[Neu5Ac(a2-3)]Gal(b1-4)Glc
Summary of the method: as §1

[16] = biological target: Neu5Ac(a2-8)Neu5Ac(a2-3)Gal(b1-3)GalNAc(b1-4)[Neu5Ac(a2-8)Neu5Ac(a2-3)]Gal(b1-4)Glc
Summary of the method: as §1

[17] = biological target: Neu5Ac(a2-8)Neu5Ac(a2-3)Gal(b1-4)Glc
Summary of the method: as §1

[18] = biological target: Neu5Ac(a2-8)Neu5Ac(a2-3)Gal(b1-4)GlcNAc
Summary of the method: as §1

[19] = biological target: Neu5Ac(a2-8)Neu5Ac(a2-3)[Gal(b1-3)GalNAc(b1-4)]Gal(b1-4)Glc
Summary of the method: as §1

[20] = biological target: Neu5Ac(a2-8)Neu5Ac(a2-3)[GalNAc(b1-4)]Gal(b1-4)Glc
Summary of the method: as §1

[21] = biological target: Neu5Ac(a2-8)Neu5Ac(a2-8)Neu5Ac
Summary of the method: as §1

[22] = biological target: Neu5Ac(a2-8)Neu5Ac(a2-8)Neu5Ac(a2-3)Gal(b1-4)Glc
Summary of the method: as §1

[23] = biological target: Neu5Ac(a2-8)Neu5Ac(a2-8)Neu5Ac(a2-3)[Gal(b1-3)GalNAc(b1-4)]Gal(b1-4)Glc
Summary of the method: as §1

[24] = biological target: Neu5Ac(a2-8)Neu5Ac(a2-8)Neu5Ac(a2-3)[GalNAc(b1-4)]Gal(b1-4)Glc
Summary of the method: as §1

[25] = biological target: Neu5Ac(a2-8)Neu5Ac(a2-8)Neu5Ac(a2-8)Neu5Ac(a2-3)[GalNAc(b1-4)]Gal(b1-4)Glc
Summary of the method: as §1

[26] = biological target: Neu5Ac(a2-8)Neu5Gc(a2-3)Gal(b1-4)GlcNAc
Summary of the method: as §1

[27] = biological target: Neu5Ac(b2-6)Gal(b1-4)GlcNAc
Summary of the method: as §1

Neu5Ac(b2-6)GalNAc = biological target: Neu5Ac(b2-6)GalNAc
Summary of the method: as §1

[28] = biological target: Neu5Ac9Ac(a2-3)Gal(b1-3)GlcNAc
Summary of the method: as §1

[29] = biological target: Neu5Ac9Ac(a2-3)Gal(b1-4)GlcNAc
Summary of the method: as §1

[30] = biological target: Neu5Ac9Ac(a2-6)Gal(b1-4)GlcNAc
Summary of the method: as §1

[31] = biological target: Neu5Gc(a2-3)Gal(b1-3)GlcNAc
Summary of the method: as §1

[32] = biological target: Neu5Gc(a2-3)Gal(b1-3)[Fuc(a1-4)]GlcNAc
Summary of the method: as §1

Neu5Gc(a2-3)Gal(b1-4)Glc = biological target: Neu5Gc(a2-3)Gal(b1-4)Glc
Summary of the method: as §1

[33] = biological target: Neu5Gc(a2-3)Gal(b1-4)GlcNAc
Summary of the method: as §1

[34] = biological target: Neu5Gc(a2-3)Gal(b1-4)GlcNAc(b1-3)Gal(b1-4)GlcNAc(b1-2)Man(a1-3)[Neu5Gc(a2-3)Gal(b1-4)GlcNAc(b1-3)Gal(b1-4)GlcNAc(b1-2)Man(a1-6)]Man(b1-4)GlcNAc(b1-4)GlcNAc
Summary of the method: as §1

[35] = biological target: Neu5Gc(a2-3)Gal(b1-4)[Fuc(a1-3)]GlcNAc
Summary of the method: as §1

[36] = biological target: Neu5Gc(a2-6)Gal(b1-4)GlcNAc
Summary of the method: as §1

Neu5Gc(a2-6)GalNAc = biological target: Neu5Gc(a2-6)GalNAc
Summary of the method: as §1

[37] = biological target: Neu5Gc(a2-8)Neu5Ac(a2-3)Gal(b1-4)GlcNAc
Summary of the method: as §1

[38] = biological target: Neu5Gc(a2-8)Neu5Gc(a2-3)Gal(b1-4)GlcNAc
Summary of the method: as §1

[39] = biological target: Neu5Gc(a2-8)Neu5Gc(a2-3)Gal(b1-4)GlcNAc(b1-3)Gal(b1-4)GlcNAc
Summary of the method: as §1

[40] = biological target: Neu5Gc(a2-8)Neu5Gc(a2-6)Gal(b1-4)GlcNAc
Summary of the method: as §1

[41] = biological target: Neu5Gc(b2-6)Gal(b1-4)GlcNAc
Summary of the method: as §1

B1: PX15618A-bth-503-24-503 (Bacteroides thetaiotaomicron) (protein)
chain: NKSEDKLSGDDFWAQGNETNAEAFLLSIYNSFRNATMSQRPFLTYSGDMRCAPITAYSTGDKYVAYLANNDMGELRNTYPDDARGGLIMQWDVFYTAIQDANILLAEIDKVPGMDELKRSRFKAEAIFMRSLSYFFIVRAFGDVPYYTNAYNEAPLPRTNMVIVLQNCLADLQPLLDDDPGAEVLPWSYSSYSSKGIRASRGSVIALMMHINLWLVQFDAQNKEQYYRNVVSLGEELERNNGAYSLLDINRSSVIFAGGSDEGLFEIAQNINFNEIFMMNAKFSDNVSYSCLNKSMPLFCYSGDYLMTLFPMYEDDARKELWFDEKIYSTSVSSSAPKEIKKFWNIDTYGNGTITSNSGNQIVFRYAGALLLYAEALAALGTNDTKACELLNRVRNRAHASEINTSGSELMDAIFWERCRELIGEGHYYYDLVRTGKVYNRNYCMNPMTRTNFNVGAWTWPIHRNALKNNTQIGLNLFWE
glycan array binding signal (z-score) [1]: -0.315
glycan array binding signal (z-score) [2]: -0.704
glycan array binding signal (z-score) [3]: -0.735
glycan array binding signal (z-score) [4]: -0.033
glycan array binding signal (z-score) [5]: -0.554
glycan array binding signal (z-score) [6]: -0.196
glycan array binding signal (z-score) [7]: 0.431
glycan array binding signal (z-score) [8]: -0.284
glycan array binding signal (z-score) [9]: 0.246
glycan array binding signal (z-score) [10]: -0.659
glycan array binding signal (z-score) (Neu5Ac(a2-6)GalNAc): -0.265
glycan array binding signal (z-score) [11]: -0.169
glycan array binding signal (z-score) [12]: -0.041
glycan array binding signal (z-score) [13]: 0.284
glycan array binding signal (z-score) [14]: 0.102
glycan array binding signal (z-score) (Neu5Ac(a2-8)Neu5Ac): 0.041
glycan array binding signal (z-score) [15]: -0.337
glycan array binding signal (z-score) [16]: 0.089
glycan array binding signal (z-score) [17]: -0.284
glycan array binding signal (z-score) [18]: -0.205
glycan array binding signal (z-score) [19]: -0.339
glycan array binding signal (z-score) [20]: -0.527
glycan array binding signal (z-score) [21]: 0.04
glycan array binding signal (z-score) [22]: -0.122
glycan array binding signal (z-score) [23]: 0.016
glycan array binding signal (z-score) [24]: -0.625
glycan array binding signal (z-score) [25]: -0.341
glycan array binding signal (z-score) [26]: 13.7
glycan array binding signal (z-score) [27]: 0.114
glycan array binding signal (z-score) (Neu5Ac(b2-6)GalNAc): -0.86
glycan array binding signal (z-score) [28]: 0.369
glycan array binding signal (z-score) [29]: 0.039
glycan array binding signal (z-score) [30]: 0.191
glycan array binding signal (z-score) [31]: -0.707
glycan array binding signal (z-score) [32]: -0.777
glycan array binding signal (z-score) (Neu5Gc(a2-3)Gal(b1-4)Glc): -0.471
glycan array binding signal (z-score) [33]: 0.54
glycan array binding signal (z-score) [34]: -0.109
glycan array binding signal (z-score) [35]: -0.832
glycan array binding signal (z-score) [36]: -0.58
glycan array binding signal (z-score) (Neu5Gc(a2-6)GalNAc): -0.328
glycan array binding signal (z-score) [37]: -0.571
glycan array binding signal (z-score) [38]: -0.269
glycan array binding signal (z-score) [39]: -0.399
glycan array binding signal (z-score) [40]: -0.097
glycan array binding signal (z-score) [41]: -0.376
